Source: the supplement of paper PMC3334620
Whole data set: some 33,000 sequences, median “E-score (-0.5 to 0.5)” near -0.04, cut for the highest 2% near 0.36. This is one part of the list.

The sequences below were run against T1, Hmlalpha2 (UniProt P0CY09) (assay: PBM E-score (8-mer binding enrichment) (E-score (-0.5 to 0.5)); higher = stronger / more preferred TF binding; most listed sequences are background and not binding sites). Settings: protein concentration: 200 nM; construct: GST-full length.
T1 sequence: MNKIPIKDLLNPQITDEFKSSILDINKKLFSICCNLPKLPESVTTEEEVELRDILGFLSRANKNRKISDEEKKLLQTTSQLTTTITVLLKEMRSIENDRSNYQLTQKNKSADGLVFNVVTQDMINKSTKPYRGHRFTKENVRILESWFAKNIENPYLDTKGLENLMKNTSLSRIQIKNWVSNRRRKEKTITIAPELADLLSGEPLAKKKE
Protocol: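 Universal 'all 10-mer' protein binding microarrays (Agilent AMADID 015681) probed with GST-tagged S. cerevisiae TFs (full-length or DBD) made by in vitro transcription/translation (PURExpress), about 100-200 nM. Bound TF was detected with fluorescent anti-GST. Each ungapped 8-mer (which stands for itself and its reverse complement) is scored by the PBM enrichment score (E-score), a modified Wilcoxon-Mann-Whitney statistic from -0.5 to +0.5, computed with the Universal PBM Analysis Suite. Scale: above 0.35 generally sequence-specific binding.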
In the case of CGTTCCTC, the “PBM E-score” value is reported as -0.169. AACCGAGG was tested, and the “PBM E-score” value was -0.324. With CCCCGCCG the “PBM E-score” value was -0.367. In the case of GAGTTGTA, the “PBM E-score” value is reported as 0.235. With CATTAACA the “PBM E-score” value was 0.409. With AGTGGAAT the “PBM E-score” value was -0.0913. With CGACTGAG the “PBM E-score” value was -0.223. ATAACTTA was tested, and the “PBM E-score” value was 0.288. ATTAAACA was tested, and the “PBM E-score” value was 0.322. AATATCTA was tested, and the “PBM E-score” value was -0.00097. For CAGCTCCC, the “PBM E-score” value was -0.325. In the case of GGTGACGA, the “PBM E-score” value is reported as -0.051. GAACCTCC was tested, and the “PBM E-score” value was -0.15. In the case of CACCTCAA, the “PBM E-score” value is reported as -0.0285. For CCCTAGGG, the “PBM E-score” value was -0.332. In the case of ATGACATC, the “PBM E-score” value is reported as 0.113. In the case of AAAGACCA, the “PBM E-score” value is reported as -0.193. With CTTGCCAA the “PBM E-score” value was 0.015. In the case of TTCAGGAA, the “PBM E-score” value is reported as -0.148. With CGCCTACG the “PBM E-score” value was -0.0054. For ACTGAATG, the “PBM E-score” value was -0.0924. With GGAACCTA the “PBM E-score” value was -0.0811. For ATTAGGCG, the “PBM E-score” value was -0.111. For AATAATCT, the “PBM E-score” value was -0.0149. TGACCAAA was tested, and the “PBM E-score” value was -0.0837. With ATGAACGA the “PBM E-score” value was 0.00742. For GTTAGATA, the “PBM E-score” value was 0.111. For CCGTAAGG, the “PBM E-score” value was -0.316. For CACATGCC, the “PBM E-score” value was 0.209. For ACTCGCAT, the “PBM E-score” value was 0.146. In the case of CTTGGGGA, the “PBM E-score” value is reported as 0.0516. For AGTAAAGG, the “PBM E-score” value was 0.157. In the case of AGAGGTGG, the “PBM E-score” value is reported as -0.206. With GAGCAGAC the “PBM E-score” value was -0.137. For CACGCGAG, the “PBM E-score” value was 0.152. With TGACAACA the “PBM E-score” value was 0.306. In the case of ACTAGGCC, the “PBM E-score” value is reported as -0.32. GGCTTTTA was tested, and the “PBM E-score” value was -0.0499. In the case of CGGTACCG, the “PBM E-score” value is reported as -0.0635. With ATCGTAAC the “PBM E-score” value was 0.156. ACGGTGGG was tested, and the “PBM E-score” value was -0.215. For AATATGTC, the “PBM E-score” value was 0.167. In the case of GCTGGTCC, the “PBM E-score” value is reported as -0.127. With AAATAAGC the “PBM E-score” value was 0.0535. ACTTGTAA was tested, and the “PBM E-score” value was 0.381. With CGCGAGGA the “PBM E-score” value was -0.0954. For CTGTCTAA, the “PBM E-score” value was 0.0701. With TCTAGGCA the “PBM E-score” value was -0.106. In the case of CACGGTCG, the “PBM E-score” value is reported as -0.112. For TCCAAGCA, the “PBM E-score” value was -0.164. GATTCCGC was tested, and the “PBM E-score” value was -0.101. CGAAAAGC was tested, and the “PBM E-score” value was -0.239. For TGTCGTAA, the “PBM E-score” value was 0.261. In the case of CCATTCGC, the “PBM E-score” value is reported as -0.334. With CAGAGGAA the “PBM E-score” value was -0.186. For CCCGTGTC, the “PBM E-score” value was 0.168. For GCCAACTA, the “PBM E-score” value was -0.0217. ATTTAGTC was tested, and the “PBM E-score” value was 0.0338. AGGGATCG was tested, and the “PBM E-score” value was -0.0672. With CGTGAGGC the “PBM E-score” value was -0.212. CAAGGCCA was tested, and the “PBM E-score” value was -0.111. In the case of CACCTCAG, the “PBM E-score” value is reported as -0.226. For CTCATCCC, the “PBM E-score” value was -0.361. With ACGACTAT the “PBM E-score” value was 0.144. With GGCGGGAA the “PBM E-score” value was -0.199. CAGATTGC was tested, and the “PBM E-score” value was -0.07. For ACCGCCCT, the “PBM E-score” value was -0.0986. With TGGATACA the “PBM E-score” value was 0.17. In the case of CATCGGGC, the “PBM E-score” value is reported as -0.211. AAAGTAAG was tested, and the “PBM E-score” value was 0.114. ACGACTAA was tested, and the “PBM E-score” value was 0.0186. With CTAAACAC the “PBM E-score” value was 0.296. GGCGGACC was tested, and the “PBM E-score” value was -0.316. With CCCGTTGA the “PBM E-score” value was -0.113. In the case of GCCAGCAA, the “PBM E-score” value is reported as -0.128. With ACACCCCC the “PBM E-score” value was -0.00773. With CGCCGACG the “PBM E-score” value was 0.00959. For GTGGGAAC, the “PBM E-score” value was -0.151. CAGCTTCC was tested, and the “PBM E-score” value was -0.209. With GGCGCCAC the “PBM E-score” value was -0.281. In the case of CATCGATA, the “PBM E-score” value is reported as 0.0588. In the case of CACCCGCA, the “PBM E-score” value is reported as -0.203. AACAACAT was tested, and the “PBM E-score” value was 0.385. GCGCTTAC was tested, and the “PBM E-score” value was 0.106. With AGTGTAGG the “PBM E-score” value was 0.206. For TGCGGACA, the “PBM E-score” value was -0.129. In the case of GGGCTACA, the “PBM E-score” value is reported as -0.0145. ACTCAAGT was tested, and the “PBM E-score” value was 0.139. For AGATTTTG, the “PBM E-score” value was 0.102. CACAGAGC was tested, and the “PBM E-score” value was 0.0994. For GACATAAC, the “PBM E-score” value was 0.297. In the case of CTTAGCAA, the “PBM E-score” value is reported as -0.0443. CACGTGCA was tested, and the “PBM E-score” value was 0.14. With GAAATTCA the “PBM E-score” value was 0.119. ACTGATTC was tested, and the “PBM E-score” value was -0.0255. For AACCTATG, the “PBM E-score” value was 0.192. With AGCTTAAA the “PBM E-score” value was -0.0456. With CGGTAAGC the “PBM E-score” value was -0.243. In the case of CCGCAAGC, the “PBM E-score” value is reported as -0.308. For GTCGCGAC, the “PBM E-score” value was 0.182. In the case of GGACCTCA, the “PBM E-score” value is reported as -0.226. With GCTTCAAA the “PBM E-score” value was -0.147. In the case of ATGAGGGC, the “PBM E-score” value is reported as -0.113. In the case of AGAACATC, the “PBM E-score” value is reported as -0.0378. ACAAAGGC was tested, and the “PBM E-score” value was 0.102. With AATGTGCG the “PBM E-score” value was 0.254. For AACGTGCC, the “PBM E-score” value was 0.142. With CTAACTTC the “PBM E-score” value was 0.105. In the case of AGCTTCTG, the “PBM E-score” value is reported as -0.211. With GGCACTGA the “PBM E-score” value was -0.127. CAGGGCCC was tested, and the “PBM E-score” value was -0.132. CGTATTTA was tested, and the “PBM E-score” value was 0.342. In the case of AGGCTACA, the “PBM E-score” value is reported as 0.0137. With ACTCTCAA the “PBM E-score” value was 0.0186. In the case of AAGGTTAG, the “PBM E-score” value is reported as -0.0235. CGATCAGC was tested, and the “PBM E-score” value was -0.158. For AGATCCCG, the “PBM E-score” value was -0.123. GGCCAGTA was tested, and the “PBM E-score” value was -0.168. CACCTCTA was tested, and the “PBM E-score” value was 0.0274. In the case of CTGTTAAC, the “PBM E-score” value is reported as 0.304. With CCTTACCA the “PBM E-score” value was -0.0702. CCAGCACC was tested, and the “PBM E-score” value was -0.32. ACTTAAAG was tested, and the “PBM E-score” value was -0.0171. In the case of ACCACCCC, the “PBM E-score” value is reported as -0.312. In the case of AATGTTAT, the “PBM E-score” value is reported as 0.291. TAAACAAA was tested, and the “PBM E-score” value was 0.223. In the case of CGGCTTGA, the “PBM E-score” value is reported as -0.122. With CAACGCCC the “PBM E-score” value was 0.00637. With CTACAATC the “PBM E-score” value was 0.241. In the case of CAATACAG, the “PBM E-score” value is reported as 0.0335. For ATCGCGTG, the “PBM E-score” value was 0.192. With CCGACAGG the “PBM E-score” value was -0.239. In the case of CGGATATA, the “PBM E-score” value is reported as 0.116. With CTTTGGAA the “PBM E-score” value was 0.0565. CGCTGCTC was tested, and the “PBM E-score” value was -0.0414. For CCTTAATC, the “PBM E-score” value was -0.172. In the case of AAATTCGC, the “PBM E-score” value is reported as 0.0425. ACAGGAGA was tested, and the “PBM E-score” value was -0.0408. For ACAGGATG, the “PBM E-score” value was 0.164. In the case of CATCCGAC, the “PBM E-score” value is reported as 0.0189. In the case of ACTCCCAG, the “PBM E-score” value is reported as -0.152. With TGGGAGAA the “PBM E-score” value was -0.171. For ATCAGCCG, the “PBM E-score” value was -0.133. For ACATCCGC, the “PBM E-score” value was 0.198. In the case of AGCCCTAC, the “PBM E-score” value is reported as -0.0891. GTGTTGCA was tested, and the “PBM E-score” value was 0.187. For CTATTAAC, the “PBM E-score” value was 0.32. CAATAGCG was tested, and the “PBM E-score” value was -0.11. With ATAAGGAA the “PBM E-score” value was -0.0657. In the case of GGGATTAA, the “PBM E-score” value is reported as 0.128. With AGAAATCT the “PBM E-score” value was -0.0254. For GACATGCC, the “PBM E-score” value was 0.212. With GTCATCTA the “PBM E-score” value was 0.123. TTATACAA was tested, and the “PBM E-score” value was 0.319. In the case of ATTGACTG, the “PBM E-score” value is reported as 0.0173. ATTTTCGG was tested, and the “PBM E-score” value was -0.114. In the case of CATCTCCA, the “PBM E-score” value is reported as -0.104. CCGGGACG was tested, and the “PBM E-score” value was -0.23. In the case of CGCTGTAA, the “PBM E-score” value is reported as 0.244. ACGAACAT was tested, and the “PBM E-score” value was 0.22. ACACATTG was tested, and the “PBM E-score” value was 0.233. CTTCTGGA was tested, and the “PBM E-score” value was -0.19. For AGAATTCA, the “PBM E-score” value was -0.0407. With AGGGCCAG the “PBM E-score” value was -0.22. In the case of TGCTTCCA, the “PBM E-score” value is reported as -0.0285. For ACTGCAGT, the “PBM E-score” value was -0.0817. With ACTCCCAT the “PBM E-score” value was 0.068. With GGCCTCCC the “PBM E-score” value was -0.455. With GCTTCTGA the “PBM E-score” value was -0.144. In the case of GGAACTTA, the “PBM E-score” value is reported as -0.0598. AGACATGA was tested, and the “PBM E-score” value was 0.275. For AAGAGCGT, the “PBM E-score” value was -0.0152.
